Data on 45 sequences can be found in the supplement of paper PMC11417369.

± gives the standard deviation of the averaged measurements. The list shows a part of the results.

The assay concerns PfAP2-LT AP2 domain (GST-tagged). Kind of assay: gcPBM binding intensity (ln(normalized median fluorescence intensity)); higher = stronger DNA binding. In short, it runs like this: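 Plasmodium falciparum DNA-binding domains carrying a GST tag were expressed in E. coli and applied for 1 h, at about 25 μg on average, to an Agilent 4 × 180k array. The array held primer-extended double-stranded 36-bp intergenic genomic probes together with negative controls, and binding took place in 1× PBS with 1% milk, 0.2 mg/ml BSA, 0.5% salmon testes DNA and 0.03% Triton X-100. An Alexa488 anti-GST antibody detected bound protein, and the array was scanned at 488 nm. Binding intensity is taken as the highest Masliner-normalised natural-log median intensity across replicate spots of either probe orientation.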
On to “AATATAAAACATATCACACATATGTATTTATGTATA [CACACA_site5763]”, for which the “gcPBM binding intensity (ln)” value worked out at 8.81 ± 0.34.

In the case of “TATATGTCAATATCTACACACATATATATAATTATT [CACACA_site3156]”, the “gcPBM binding intensity (ln)” value came out at 9.02 ± 0.38.

With “ATACATATTAAAGGATGTACACTTATATTTTTTAGA [XGTACX_site5406]”, the “gcPBM binding intensity (ln)” value worked out at 8.63 ± 0.38.

For the sequence “TGTGGGAATAACCACACACACACACGCATATAAATA [CACACA_site7634]”, the “gcPBM binding intensity (ln)” value was 9.88 ± 0.38.

As to “ATAAAATAACACAACGTTGACAAATTTGGATGACTC [XGTACX_negctrl_site324]”, the “gcPBM binding intensity (ln)” value worked out at 9.32 ± 0.4.

For “TTTATTAAAATATTCTCACACACCAAAATATGTATG [CACACA_site932]”, the “gcPBM binding intensity (ln)” value was determined as 9.05 ± 0.58.

As to “ATATATGTAGATATATGTACATATATAGGTAGATAT [XGTACX_site7589]”, the “gcPBM binding intensity (ln)” value turned out to be 9.34 ± 0.46.

In the case of “TTGATGTTGGTAGGATGTACGGTACCGGTAGTATTT [XGTACX_site6642]”, the “gcPBM binding intensity (ln)” value stood at 8.94 ± 0.42.

As to “AATTTATTTTTTTGATGTACATACAATTTATCACAA [XGTACX_site5936]”, the “gcPBM binding intensity (ln)” value stood at 8.69 ± 0.38.

On to “AAGGAAAAGTAAAGAAGTACTGTACCGCCAAAAAAA [XGTACX_site2607]”, for which the “gcPBM binding intensity (ln)” value came to 8.98 ± 0.56.

“AAAATAATAAAAAGGGGTACAAAGAAACAAATATAA [XGTACX_site296]”: the “gcPBM binding intensity (ln)” value worked out at 8.98 ± 0.54.

With “TATGTGCATATAAACTCACACATTGTATATTACATG [CACACA_site6106]”, the “gcPBM binding intensity (ln)” value amounted to 8.89 ± 0.37.

As to “TATTACATTATATAAACATGCAAAACTATATATTAT [TGCATGCA_site601]”, the “gcPBM binding intensity (ln)” value turned out to be 8.7 ± 0.3.

Take “ATTTTAGAATTTAATACACACAAAAAAAAAAAATTA [CACACA_site3704]”: the “gcPBM binding intensity (ln)” value was found to be 8.6 ± 0.47.

As to ACTTTAGAAATAGAGGTGCTATTTTTATTACCACAC, the “gcPBM binding intensity (ln)” value worked out at 8.85 ± 0.54.

Regarding “AAAAATTTATTTAAAAGTACATAAAATAAAGGTGGA [XGTACX_site7591]”, the “gcPBM binding intensity (ln)” value turned out to be 8.65 ± 0.53.

Consider “TATACACATATATACACACACATATATAAATAAATA [CACACA_site7579]”, for which the “gcPBM binding intensity (ln)” value was 9.48 ± 0.37.

Regarding “TGCACAAAGTTATGCACACACCTAAAATTAATTTTT [CACACA_site7385]”, the “gcPBM binding intensity (ln)” value was determined as 9.12 ± 0.36.

Consider “TTATAATATGTATACACACACATATATAGATATATA [CACACA_site7159]”, for which the “gcPBM binding intensity (ln)” value came to 9.18 ± 0.35.

As for “GTACATAGGTATAGCACACACAAATGTAGGTATTTT [CACACA_site4049]”, the “gcPBM binding intensity (ln)” value was 9.45 ± 0.44.

As to “ATTCTTTATATGCATACACACCTAATATAGGGACCT [CACACA_site6830]”, the “gcPBM binding intensity (ln)” value was determined as 9.12 ± 0.39.

“AAATGTAATATAAATAGTACATATTAAATAAAATTA [XGTACX_site6917]”: the “gcPBM binding intensity (ln)” value was 8.72 ± 0.47.

Turning to “ATGTGCACATATAAAAGTACACGCACATATATATAT [XGTACX_site1238]”, the “gcPBM binding intensity (ln)” value came out at 9.33 ± 0.3.

On to “TATATAATTGTCTTCACACACACATATATATATATA [CACACA_site2744]”, for which the “gcPBM binding intensity (ln)” value was determined as 9.565 ± 0.078.

With “AAGAATATTATAAACACACACTTTATAAAGAATTAT [CACACA_site4241]”, the “gcPBM binding intensity (ln)” value came out at 9.02 ± 0.38.

Turning to “TATTTTATTTGTATATTCATTTGTATAATATAAATA [TGCATGCA_negctrl_site267]”, the “gcPBM binding intensity (ln)” value turned out to be 8.44 ± 0.45.

In the case of “AAAAAAAAAAAAAAAACACACATAAAAATATAATAA [CACACA_site3855]”, the “gcPBM binding intensity (ln)” value was found to be 8.74 ± 0.63.

For ATTATATATAATATAGTGCATGTAAAAAATAAAACA, the “gcPBM binding intensity (ln)” value was found to be 8.95 ± 0.48.

On to “GATGTATTCATACATGCACACGTACATATTTAAATA [CACACA_site9299]”, for which the “gcPBM binding intensity (ln)” value came out at 9.09 ± 0.28.

For “TAAACCAAAAAAAGTAGTACAAATATTATAAAAAAA [XGTACX_site8497]”, the “gcPBM binding intensity (ln)” value was determined as 8.69 ± 0.52.

As for “TATTTTAATTTTTGTTGTACGCAAATGTGAGGGCAT [XGTACX_site4663]”, the “gcPBM binding intensity (ln)” value was found to be 8.54 ± 0.4.

In the case of “AAATCGTGCACGGACACATGCAGTAGCCGAGAATTA [TGCATGCA_site733]”, the “gcPBM binding intensity (ln)” value amounted to 9.12 ± 0.38.

Regarding “TGTTTATTTATTTGTGTGCACTCAGATTATATTATA [GTGCAC_site9510]”, the “gcPBM binding intensity (ln)” value came out at 9.34 ± 0.49.

For the sequence “GTTCATAAATTAAACACACACACACGGCTGGATACC [CACACA_site7545]”, the “gcPBM binding intensity (ln)” value was determined as 9.79 ± 0.26.

Take “AGGTAGAAAAAAGACACACACATTAGATATTTATAT [CACACA_site6313]”: the “gcPBM binding intensity (ln)” value stood at 9.38 ± 0.47.

For the sequence “GTAAAACAGATTTACAGTACACATGTGTTATGTTTT [XGTACX_site2933]”, the “gcPBM binding intensity (ln)” value amounted to 9.06 ± 0.42.

As for “TTTTTATATTTTATTATTTTTTTTATATAAAAAATT [CACACA_negctrl_site601]”, the “gcPBM binding intensity (ln)” value stood at 8.38 ± 0.59.

Regarding “TTTATATATAAATAATGTACAAAAAATTTTAAAAAG [XGTACX_site7990]”, the “gcPBM binding intensity (ln)” value amounted to 8.39 ± 0.39.

“ATAAAAATATTTGAATGTACTTATAAGATATATATA [XGTACX_site4257]”: the “gcPBM binding intensity (ln)” value came to 8.54 ± 0.45.

Regarding “TCTATTTTTTATATGGTGCATTGTTCTTATTAATAT [GTGCAC_site9392]”, the “gcPBM binding intensity (ln)” value worked out at 8.92 ± 0.47.

For the sequence “CTTTATTTTTTATACACACACAATATGTATTTATAT [CACACA_site5879]”, the “gcPBM binding intensity (ln)” value came to 9.28 ± 0.51.

“AATTAATTTATGTTACGTACATAAGTATTATATTTT [XGTACX_site388]”: the “gcPBM binding intensity (ln)” value amounted to 8.8 ± 0.39.

Regarding “AGGAAAAATAATTATTCACACAATAAATATATTTGA [CACACA_site5824]”, the “gcPBM binding intensity (ln)” value stood at 8.57 ± 0.57.

Turning to “GTTCAAATTATTATGTGTACTAAAGAATATTTTAAA [XGTACX_site3166]”, the “gcPBM binding intensity (ln)” value stood at 8.29 ± 0.43.

Regarding “TAAATACATCTATGCACACAAAAAAATATATATTTT [CACACA_site5027]”, the “gcPBM binding intensity (ln)” value turned out to be 9.02 ± 0.39.
